Data published in PubChem BioAssay AID485344 (National Center for Advancing Translational Sciences (NCATS), 2010).
Out of some 340,000 compounds screened, about 6,900 (2%) were called active. Cut-off read from the data, not from the text of the source: active = inhibition above about 30%; inactive = below that, where a call was filed. The list shows a part of the results, in another mix than the full data. Entries without a call were filed so in the source.

Each compound was assayed against D(2) dopamine receptor (Homo sapiens) (UniProt P14416) (assay: HTS Assay for Allosteric Antagonists of the Human D2 Dopamine Receptor: Primary Screen for Antagonists). Settings: HEK293 TREx D2 cells, calcium flux, dopamine EC80; at 10 µM; stronger effect = higher value.
Outline: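 Compounds are added to dye-loaded, induced HEK293 T-REx cells coupled to calcium release via D2; after a 3 min kinetic read an EC80 dopamine stimulus is given and fluorescence is recorded for 3 more min.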
Note: 0% is about no effect.

Sequence of UniProt P14416 (P14416 whole entry, looked up): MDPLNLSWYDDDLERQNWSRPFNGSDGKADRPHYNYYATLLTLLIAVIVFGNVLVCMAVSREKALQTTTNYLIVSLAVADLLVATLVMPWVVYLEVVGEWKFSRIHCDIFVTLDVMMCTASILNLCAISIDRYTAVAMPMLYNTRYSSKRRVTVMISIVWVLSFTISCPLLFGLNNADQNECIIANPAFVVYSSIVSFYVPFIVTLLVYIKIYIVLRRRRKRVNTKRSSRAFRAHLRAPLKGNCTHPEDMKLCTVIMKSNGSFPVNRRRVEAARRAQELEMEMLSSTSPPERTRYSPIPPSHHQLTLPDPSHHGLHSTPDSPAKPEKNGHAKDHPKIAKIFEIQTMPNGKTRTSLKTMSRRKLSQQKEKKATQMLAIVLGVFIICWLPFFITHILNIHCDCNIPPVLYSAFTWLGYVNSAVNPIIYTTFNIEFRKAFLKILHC

Compound | inhibition
COc1ccc(OC)c(CNC(=O)Cn2nc(C)c3c(C)n(-c4ccc(C)cc4)nc3c2=O)c1 | active: 30%
Cn1cc(S(=O)(=O)c2ccccc2)c(=O)c2cc(F)c(N3CCCCCC3)cc21 | 16.2%
Cc1cc(C)cc(-n2c(SCC(=O)Nc3ccc4c(c3)OCCO4)nc3c([nH]c4ccccc43)c2=O)c1 | -8.74%
COc1cc(CNCCN2CCOCC2)ccc1OCc1cccc(Cl)c1 | active: 42.3%
COc1ccc(CNC(=O)CCc2nc(-c3ccc(C)cc3)no2)c(OC)c1 | -7.26%
Cn1c(=O)n(C)c2cc(N3CCCCC3)c(NC(=O)c3ccc(C(C)(C)C)cc3)cc21 | -7.55%
CCOC(=O)N1CCN(Cc2ccc3c(c2)OCO3)CC1 | active: 80.9%
CC1=C(c2ccc(C)c(C)c2)S(=O)(=O)N=C1N1CCC(C(=O)NC(C)Cc2ccco2)CC1 (stereo not drawn) | 12.5%
COc1cccc(N2CCN(C(=O)c3ccc(NC(=O)c4nsc5ccccc45)cc3)CC2)c1 | -24.4%
COc1ccc(NC(=O)c2ccco2)cc1NC(=O)COc1ccc(Cl)cc1C | 11.6%
Cc1ccc(C(=O)NCc2ccc(F)cc2)cc1NC(=O)c1nsc2ccccc12 | -8.28%
CCN(CC)CCNC(=O)c1sc2ncccc2c1-n1cccc1 | -8.17%
Cc1ccc(NC(=O)CSc2nc(-c3ccccc3Cl)nc3cc(=O)[nH]n23)c(C)c1 | 5.72%
COC(=O)c1c(C)nn(-c2ccc(F)cc2)c1-n1cccc1 | 0.934%
CCc1cccc(Nc2ncnc3onc(-c4ccc(F)cc4)c23)c1 | -24.5%
O=C(CSc1nc(-c2ccc(F)cc2)cc(C(F)(F)F)n1)NCCc1ccccc1 | -1.63%
Cc1nnc(Sc2nc3c(c(=O)[nH]c(=O)n3C)n2CCc2ccccc2)s1 | active: 50.5%
O=C(CSc1cn(CC(=O)N2CCCCC2)c2ccccc12)Nc1ccc(C(F)(F)F)cc1 | -3.81%
COc1cccc(N2CCN(S(=O)(=O)c3ccc(-c4ccno4)cc3OC)CC2)c1 | 11.3%
COc1ccc(OC)c(C2NC(=O)NC(C)=C2C(=O)Nc2ccc(F)cc2)c1 (stereo not drawn) | -9.06%
COc1ccc(CCNC(=O)CSc2n[nH]c(-c3ccccc3Cl)n2)cc1OC | -11.4%

Compound | inhibition
COc1ccc(Cl)cc1NC(=O)CSC1=Nc2ccccc2C2=NC(CC(=O)NCc3cccs3)C(=O)N12 (stereo not drawn) | -7.41%
O=C(NCc1ccccc1)c1cnc(N2CCCCC2)c2ccccc12 | -22.2%
COc1ccc(Nc2c(-c3ccccn3)nc3ccc(Cl)cn23)cc1 | 21.8%
COc1cccc(Nc2nc3ccc(C)cc3nc2-n2nc(C)cc2C)c1 | 5.85%
Cc1ccc(NC(=O)C2=CC(c3ccc4c(c3)OCO4)=NS(=O)(=O)N2C)cc1 | 0.457%
CCOC(=O)c1c(S(=O)(=O)NCC2CCN(CCc3cccs3)CC2)c(C)n(C)c1C | active: 43.2%
CCc1ccc(-n2c(=O)c3cccnc3n2CC(=O)NCc2ccc(C)cc2)cc1 | 7.85%
Cc1ccc(NC(=O)Cn2c(=O)n(Cc3nc(-c4ccccc4)no3)c(=O)c3cc4c(cc32)OCO4)c(C)c1 | -5.6%
Nc1cc2c(cc1[N+](=O)[O-])OCCO2 | active: 47.2%
COc1ccc(CN2CCN(c3ccccn3)CC2)c(OC)c1 | active: 82.9%
CCCCOC(=O)c1ccc(NC(=O)c2cnc3ccc(C)cn3c2=O)cc1 | 11.9%
CCn1c(=O)cc(OCC(=O)N2CCN(c3ccc(F)cc3)CC2)c2ccccc21 | -1.78%
CCN(c1cccc(C)c1)c1ncnc2c1cnn2-c1cccc(Cl)c1 | -12.1%
COc1ccc(CN2COc3ccc4c(-c5ccccc5)cc(=O)oc4c3C2)cc1OC | -7.27%
Cc1nn(C(=O)c2ccc(Br)cc2)c(C)c1Sc1ccccc1 | -8.42%
COc1cc(OC)c(N(C)C(=O)c2sc3nc4n(c(=O)c3c2C)CCCC4)cc1Cl | -14.9%
Cn1c(=O)n(CCCc2ccccc2)c(=O)c2c1nc1n2CCN1c1ccc(F)cc1 | 11.9%
O=C(c1cc(-c2ccc(O)cc2)on1)N1CCN(c2ccccc2)CC1 | -5.66%
CSc1nc2sc3c(c2c(=O)n1-c1ccccc1)CCC(C(C)(C)C)C3 (stereo not drawn) | -0.617%
Cc1cc(C)cc(NC(=O)CCCc2nc(-c3ccccc3Cl)no2)c1 | 6.92%
Clc1cccc(Cl)c1OCCOCCNCc1ccccc1 | active: 53%

Compound | inhibition
CCc1ccc(NC(=O)Cn2cc(S(=O)(=O)N3CCCC3)c(S(=O)(=O)N3CCCC3)c2)cc1 | -9.86%
O=C(NC1CC(=O)N(c2ccc(F)cc2)C1)C1CC1 (stereo not drawn) | -2.38%
CC(C)NC(=O)CCN1C(=O)c2ccccc2Sc2ncccc21 | -9.83%
COc1ccc2oc(=O)c(-c3nc(-c4cccs4)no3)cc2c1 | -3.77%
Cc1ccc(NC(=O)Cn2nnc(C(=O)NCc3ccc4c(c3)OCO4)c2N)cc1Cl | 2.21%
COc1ccc(-c2nn(-c3cccc(F)c3)c3c2cnc2cc(OC)c(OC)cc23)cc1 | -4.17%
COc1ccc2[nH]cc(S(=O)(=O)c3ccc(C)c(C)c3)c(=O)c2c1 | 19.4%
COc1ccc(Cn2c(=O)[nH]c3cc(C(=O)N4CCN(c5cc(Cl)ccc5C)CC4)ccc3c2=O)cc1 | 2.55%
Nc1ccc(/C=C/C(=O)c2cccs2)cc1 | active: 59.6%
O=C(Nc1nnc(SCc2cc(=O)n3cc(Cl)ccc3n2)s1)c1cccc(F)c1 | 2.24%
O=C(c1ccc2c(Cl)c3c(nc2c1)CCCC3)N1CCN(c2ccccc2F)CC1 | 4.21%
CCC(C(=O)N1CCN(c2ccccc2)CC1)n1nc(C)c2sc3ccccc3c2c1=O (stereo not drawn) | -18.9%
Cc1ccccc1NC(=O)c1cnc2sc(N3CCCC3)nn2c1=O | 3.54%
COc1ccc(N2CC(NC(=O)c3c(F)cccc3Cl)CC2=O)cc1OC (stereo not drawn) | 0.272%
CCOc1ccc(N2CC(c3nc4ccccc4n3CCOc3ccc(CC)cc3)CC2=O)cc1 (stereo not drawn) | -4.86%
COCCCNS(=O)(=O)c1ccc2c(c1)OCCO2 | active: 34.4%
O=C(CSc1nc2ccccc2n1Cc1c(F)cccc1Cl)N1CCN(c2ccc(F)cc2)CC1 | 5.67%
CCNCCC(=O)N1c2ccccc2Sc2ccc(C(F)(F)F)cc21 | active: 72.6%
O=C(CSc1nc2ccsc2c(=O)n1Cc1ccccc1Cl)NCc1ccc(Cl)cc1 | 5.08%
CCOc1cc(CNC(=O)c2ccc3nc(CCc4ccccc4)oc3c2)ccc1OC | -25.8%
Cc1ccc(S(=O)(=O)NCCc2csc3nc(-c4ccccc4C)nn23)cc1 | 7.62%
